The values that follow come from ChEMBL document CHEMBL5308541, “MAIP: An Open-Source Tool to Enrich High-Throughput Screening Output and Identify Novel, Druglike Molecules with Antimalarial Activity” (ACS Med Chem Lett, 2023).

SMILES strings stand for the structures. About 540 (0.36%) of roughly 150,000 compounds showed an effect of 50% or more. The list shows a part of the results.

This assay has as its system Plasmodium falciparum. In words: Primary screen in NF54 nanoGlo assay, in single point, at 2uM, 72h; a lower Z score goes with more inhibition. Type of assay: functional, Erythrocyte. To be noted: timepoint 72 hour.
On to `Cc1nc(N2CCN(CC(=O)NC3CCCCC3)CC2)c2cc[nH]c2n1`, for which the “% Inhibition” value was -11% and the Z score was determined as 2.32.
`O=C(NC1CCN(c2ccccn2)CC1)c1cc(=O)c2ccccc2[nH]1`: the “% Inhibition” value is given as -6% and the Z score was determined as 1.21.
In the same order, the values of `CC(C)(C)OC(=O)N1CCC[C@H](Nc2ccn(CC(F)F)n2)CC1` are 3% and -0.72.
In the same order, the values of `CCNc1ncc(C(=O)N[C@@H](C)c2ccc3cc(OC)ccc3c2)cn1` are 17% and -2.97.
Turning to `Nc1nccnc1C(=O)Nc1cccc(-c2ccc3c(c2)CCO3)c1`, the “% Inhibition” value is 0% and the Z score is recorded as 0.09.
In the same order, the values of `Clc1ccc2c(N3CCCC[C@H]3c3nc4ccccc4o3)ncnc2c1` are -14% and 3.07.
In the same order, the values of `NC(=O)C[C@H](Nc1cc(-n2ccnc2)ncn1)C1CCCCC1` are -17% and 3.02.
In the same order, the values of `CN(C)c1nc2c(c(NCc3cc4ccc(F)cc4[nH]c3=O)n1)CCNC2` are -12% and 2.5.
As to `CCCCc1c(C)nc(N)nc1N1CCC(CN2CCN(C)CC2)CC1`, the “% Inhibition” value turned out to be 23% and the Z score is -3.49.
In the same order, the values of `CCN(CCCN[C@H]1CCCN(C)c2ccccc21)S(C)(=O)=O` are -2% and 0.35.
In the case of `C[C@@H](C(=O)NCc1cc[nH]n1)N1CCN(C)CC1`, the “% Inhibition” value was -7% and the Z score is listed as 1.3.
`Clc1cnc(NCC(c2ccco2)c2ccco2)nc1`: the “% Inhibition” value was -8% and the Z score stood at 1.27.
In the same order, the values of `CC(C)(C)c1cc2c(N3CCC[C@H](NC4CCOCC4)C3)nccn2n1` are -8% and 1.14.
In the same order, the values of `O=C([C@H]1CC(=O)N(c2[nH]nc3ccccc23)C1)N1CCC(c2noc3cc(F)ccc23)CC1` are -11% and 1.71.
In the same order, the values of `Cc1ccc2cc(CNc3ccc(N4CCOCC4)cn3)ccc2n1` are -17% and 3.44.
For `CC(C)(O)CN(C(=O)C1CCN(c2noc3ccc(Cl)cc23)CC1)C1CC1`, the “% Inhibition” value is listed as 5% and the Z score is on record as -0.77.
In the same order, the values of `COc1cccc([C@H](C)N2CCN(Cc3ccc4c[nH]nc4c3)CC2)c1` are -11% and 1.88.
For `CC(C)N1CCC[C@H](C(=O)N(C)CC2CCN(CCc3ccccc3F)CC2)C1`, the “% Inhibition” value is reported as -6% and the Z score amounted to 1.03.
In the same order, the values of `CCCn1cc(NC(=O)NCCCc2c(C)noc2C)nn1` are -7% and 1.45.
In the same order, the values of `Cc1n[nH]c(CNC(=O)NCc2ccc(C3CC3)cc2F)n1` are -12% and 2.3.
In the same order, the values of `Cc1cc(C)cc(Nc2nc(Nc3cc(C)cc(C)c3)nc(N[C@@H](C)C(=O)Nc3ccc(F)cc3)n2)c1` are 5% and -0.88.
On to `O=C(NCc1cccc(-c2ccccc2)c1)[C@@H]1CCCN1C1CCNCC1`, for which the “% Inhibition” value came to 0% and the Z score is -0.07.
In the same order, the values of `CO[C@H]1C[C@@H](CN(C)c2cc(NCC3CC3)ncn2)N(C)C1` are -7% and 1.05.
In the same order, the values of `Nc1nccc(N2CCc3onc(-c4ccc(-c5ccccc5)cc4)c3C2)n1` are 10% and -1.51.
In the same order, the values of `c1ccc2sc(NCCc3noc(C4CC4)n3)nc2c1` are 1% and -0.15.
As to `Cc1ccc(-n2nnnc2N2CC3CCC2C3)cc1` (stereo unspecified), the “% Inhibition” value is listed as -5% and the Z score is on record as 0.78.
In the same order, the values of `Cn1cc(NC(=O)CN2CCC(N3CCC[C@H](C(=O)N4CCCC4)C3)CC2)cn1` are -5% and 1.11.
In the same order, the values of `O=c1[nH]c2ccccc2n1C1CCN(C[C@]2(O)CCCNCC2)CC1` are 3% and -0.5.
Turning to `Nc1nc(N2CCC3(CC2)CC(=O)N(Cc2ccccc2)C3)c2cn[nH]c2n1`, the “% Inhibition” value is on record as -1% and the Z score was determined as 0.18.
`FC1(F)CNCC[C@@H]1CNc1cc(N2CCOCC2)ncn1`: the “% Inhibition” value is recorded as -2% and the Z score was determined as 0.42.
In the same order, the values of `OCC12CCCNC1CCN(Cc1cccc(-c3ccccn3)c1)C2` (stereo unspecified) are 4% and -0.62.
For the molecule `C[C@H]1CNCCN1C(=O)c1cccc(-c2cc(N3CCOCC3)nc(N)n2)c1`, the “% Inhibition” value is on record as -7% and the Z score was determined as 1.3.
With `Cc1ccc(NC(=O)CNC(=O)c2cc(F)cc(F)c2)c(N(C)C)n1`, the “% Inhibition” value was -5% and the Z score worked out at 1.16.
In the same order, the values of `C[C@](O)(CNS(=O)(=O)c1c[nH]c2ncccc12)C(c1ccccc1)c1ccccc1` are 4% and -0.63.
In the same order, the values of `Cc1c(NC(=O)C2CC2C2CCOCC2)n[nH]c1C(C)C` (stereo unspecified) are -5% and 0.75.
In the same order, the values of `CN1CCC(c2nc(C(=O)N3CC[C@H](Nc4ncccn4)C3)c[nH]2)CC1` are 7% and -1.12.
Turning to `COc1ccc(CNCCCn2ccnc2C)c(OC[C@@H](O)CN2CCN(C)CC2)c1`, the “% Inhibition” value was -4% and the Z score was 0.81.
In the same order, the values of `CN1CCN([C@H]2CCN(c3cc(NCCO)ncn3)C2)CC1` are -6% and 1.28.
Regarding `c1cc(O[C@H]2CCNC2)cc(CNc2nccn3cnnc23)n1`, the “% Inhibition” value is 3% and the Z score was -0.56.
Regarding `N#Cc1cnccc1N[C@H]1CCN(CCN2CCOCC2)C1`, the “% Inhibition” value is given as -16% and the Z score came to 2.46.
Take `CN(Cc1cccc2[nH]ccc12)C1CCN(CCn2cccn2)CC1`: the “% Inhibition” value is -1% and the Z score came to 0.24.
For `CC(C)CNC(=O)c1cc(F)c(NC(=O)COC(C)C)c(F)c1`, the “% Inhibition” value is -7% and the Z score turned out to be 1.
As for `Cc1nc(CN(C)Cc2cccc3cnccc23)n(C)c1C`, the “% Inhibition” value is -4% and the Z score turned out to be 0.86.
Turning to `O=C(N1CCCC1)N1CCC(Nc2ncnc3cc[nH]c23)CC1`, the “% Inhibition” value is recorded as -2% and the Z score was 0.34.
As for `COc1ccc2cc(CNc3cc(C#N)c4ccccc4n3)ccc2c1`, the “% Inhibition” value amounted to 7% and the Z score is recorded as -1.24.
In the same order, the values of `COc1ccc2nc(C)cc(NCc3cccc(NC(=O)c4ccco4)c3)c2c1` are 93% and -18.52.
Take `COc1ccccc1-c1cnnc(Nc2ccc(OCC(C)(C)Cl)cc2)c1`: the “% Inhibition” value was -6% and the Z score turned out to be 1.21.
In the same order, the values of `CC[C@H]1CN(c2ncnc3[nH]ccc23)CCN1CCOC` are 1% and -0.12.
`N#Cc1cc2c(nc1N1CC(O)C(Cc3ccnc4ccccc34)C1)CCCC2` (stereo unspecified): the “% Inhibition” value is recorded as -4% and the Z score worked out at 0.78.
In the same order, the values of `CN(C)CCN1CCC(CNCc2cc(F)ccc2F)CC1` are 2% and -0.36.
In the same order, the values of `Cc1ccc(CNC(=O)NC2(C)CCC3(CC2)OCCO3)cn1` are -3% and 0.56.
In the same order, the values of `COc1ccc([C@@H](NC(=O)c2cc(C)nc3cc(F)ccc23)C2CC2)cc1` are -13% and 2.59.
Turning to `CCN(CCN(C)C)C(=O)c1ccc(N2CCNCC2)c(NS(=O)(=O)c2cc(C)c(C)cc2C)c1`, the “% Inhibition” value is recorded as -9% and the Z score came out at 1.5.
